Data on 16 compounds can be found in patent US20040142317A1, “Use of amino acid transporter atbo,+ as a delivery system for drugs and prodrugs” (priority 2003, published 2004).

One test deals with T1, mouse ATB^0,+ (Mus musculus, UniProt Q9JMA9).
T1 sequence (Q9JMA9 1-638): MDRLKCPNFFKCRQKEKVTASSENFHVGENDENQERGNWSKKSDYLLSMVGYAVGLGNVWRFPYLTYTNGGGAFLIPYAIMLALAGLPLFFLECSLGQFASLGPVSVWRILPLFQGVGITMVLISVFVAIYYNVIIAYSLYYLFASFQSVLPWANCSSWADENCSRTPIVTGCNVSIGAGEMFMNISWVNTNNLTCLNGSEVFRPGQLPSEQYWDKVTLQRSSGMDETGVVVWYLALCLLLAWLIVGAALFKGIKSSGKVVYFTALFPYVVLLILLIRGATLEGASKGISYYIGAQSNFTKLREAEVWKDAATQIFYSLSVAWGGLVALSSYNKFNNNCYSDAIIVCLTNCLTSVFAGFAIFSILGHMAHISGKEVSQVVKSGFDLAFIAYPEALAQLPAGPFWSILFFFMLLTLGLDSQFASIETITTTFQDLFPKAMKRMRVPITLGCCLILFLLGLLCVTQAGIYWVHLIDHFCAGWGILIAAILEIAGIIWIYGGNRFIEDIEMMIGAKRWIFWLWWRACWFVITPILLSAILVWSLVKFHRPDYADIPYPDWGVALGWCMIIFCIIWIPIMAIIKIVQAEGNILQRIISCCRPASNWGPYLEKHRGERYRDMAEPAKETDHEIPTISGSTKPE
Settings: not given
Turning to `NC(CCC(=O)Nc1ccccc1)C(=O)O` (racemic) [DL-Glutamate γ-anilide], the “ATB^0,+-specific glycine transport (% control)” value amounted to 49 ± 1 % control. For `N[C@@H](CCC(=O)O)C(=O)O` [Glutamate, L-Glutamate], the “ATB^0,+-specific glycine transport (% control)” value is on record as 82 ± 2 % control. As for `N[C@@H](CCC(=O)Nc1cccc2ccccc12)C(=O)O` [L-Glutamate γ-(α-napthylamide)], the “ATB^0,+-specific glycine transport (% control)” value was 97 ± 2 % control. The same measure, in the same setting: the entry for `N[C@@H](CCC(=O)Nc1ccc2ccccc2c1)C(=O)O` [L-Glutamate γ-(β-napthylamide)] is “*79 ± 4 % control”.

The test is the same for the next values; noted with them: HRPE, 0.25 h, read-out: mATB^0,+-Specific [^3H]-Glycine Transport, % (of control).
Consider `N[C@@H](CCC(=O)O)C(=O)O` [Glutamate, L-Glutamate], for which the remaining activity at 2500 µM amounted to 90%.

Still in this test, the particulars now being: compound 1 mM; [3H]glycine 10 μM; HRPE cells.
`NC(=O)C[C@H](N)C(=O)O` [Asparagine, L-Asparagine]: the “ATB^0,+-specific glycine transport (% control)” value was found to be 22 ± 0 % control. Consider `N[C@@H](CC(=O)O)C(=O)O` [Aspartate, L-Aspartate], for which the “ATB^0,+-specific glycine transport (% control)” value was 86 ± 3 % control. Same read-out and setting: under `NC(=O)CC[C@H](N)C(=O)O` [Glutamine, L-Glutamine] stands 21 ± 1 % control; under `N[C@@H](CC(=O)OCc1ccccc1)C(=O)O` [L-Aspartate β-benzyl ester], 2 ± 1 % control; under `N[C@@H](CC(=O)NO)C(=O)O` [L-Aspartate β-hydroxamate], 39 ± 1 % control.

`COC(=O)C[C@H](N)C(=O)O` [L-Aspartate β-methyl ester]: the “ATB^0,+-specific glycine transport (% control)” value stood at 8 ± 1 % control.

`N[C@@H](CCC(=O)OCc1ccccc1)C(=O)O` [L-Glutamate γ-benzyl ester]: the “ATB^0,+-specific glycine transport (% control)” value was determined as 13 ± 1 % control.

Still in this test, the particulars now being: read-out: IC50 for inhibition of ATB^0,+-mediated glycine transport; glycine 10 μM; HRPE cells.
`CSC(N)=NCCC[C@H](N)C(=O)O` [L-MTC]: the IC50 – broadly, the midpoint of a concentration-inhibition curve – is 730 ± 90 µM. As to `CC(=N)NCCCC[C@H](N)C(=O)O` [L-NIL], the IC50 turned out to be 2600 ± 290 µM.

Take `CC(=N)NCCC[C@H](N)C(=O)O` [L-NIO]: the concentration for half-maximal inhibition (IC50) is 2650 ± 250 µM. With `CNC(=N)NCCC[C@H](N)C(=O)O` [L-NMMA], the IC50 was 770 ± 120 µM. On to `NC(=S)NCCC[C@H](N)C(=O)O` [L-TC], for which the IC50 turned out to be 210 ± 30 µM.
